From doi:10.1101/2025.09.24.678334 come the findings set out here.

This test has as its target monomeric actin (ATP•G-actin) from chicken skeletal muscle (chicken) (UniProt P68139). Kind of test: SPR; actin (20 nM, about 1000 RU) coupled by EDC/NHS to a CM5 chip; concentration series of analyte; Biacore 8k; 1X HBS-EP+ pH 7.6; Hill equilibrium fit and two-state kinetic fit. In general terms: In SPR one partner is held on a chip, and binding of the other changes the refractive index at the surface.

For orientation: Kd means a measure of binding affinity in units of concentration. In the case of “human cofilin-1, wild type (a stretch of the chain, no sequence given) (natural protein; other documents disagree on this pair)”, the Kd came to 20 µM.
